Assay results from article PMC12136788.
Some of the results follow.

T1: UNK ZnF1-3 (human, UniProt Q9C0B0 31-174)
T1 sequence: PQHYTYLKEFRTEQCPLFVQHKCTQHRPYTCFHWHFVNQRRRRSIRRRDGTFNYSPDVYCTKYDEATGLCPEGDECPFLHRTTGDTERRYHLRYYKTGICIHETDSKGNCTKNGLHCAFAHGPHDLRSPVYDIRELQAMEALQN

B1: chr1:225611761:225611762:-_ENSG00000143815_ENST00000272163|hu_mus|hu_hu_hu_mus_True|58_78 (ssRNA)
RNA: GGGAGUUCUACAGUCCGACGAUCCCAGGCCAUCGGCCUCUGACCACUUCACCCUCAGCAAAUUUCCUACUUGGCAUUUUCUAUAAUUAGUCUGGCCGCGCUCCGGCGGGAACUCCAGCCACUCCAGGACAGUCACCAGCAGCCCAACAGAGGAUUGAGCAUCA
B2: chr4:62048941:62048942:+_ENSMUSG00000066150_ENSMUST00000084526|mus_mus|motif|central (ssRNA)
RNA: GGGAGUUCUACAGUCCGACGAUCUUGAGACUUUCGAAGCAGACCCUCUCGGGCUAUCUUGAGUCCUUCAUAAAACAUUGCGGGUAAAAACACUGCCACGAAGGCUCCAGCCAUUUCUCCAGGUGUAUUGAUUACCAAACCGGACAACAGAGGAUUGAGCAUCA
B3: chr10:17279496:17279497:+_ENSG00000026025_ENST00000224237|hu_mus|motif|central (ssRNA)
RNA: GGGAGUUCUACAGUCCGACGAUCUUUAAUGGUAUUCAAAAAUACUUUAAAAAGUAUUCUAGCACAAGAUUUCUUCGUAAACGGGAUUAUUUUGUAAACCUUUUCUACGUCUUUUGGGGUGUCAGUUGUUAAGUGCUGAGCUUCCAACAGAGGAUUGAGCAUCA
B4: chr22:19452774:19452775:-_ENSG00000070010_ENST00000399523|hu_hu|hu_hu_hu_mus_False|38_58 (ssRNA)
RNA: GGGAGUUCUACAGUCCGACGAUCCUUCUCAUUGUAGUUGAUAGCAAUCACAUCUCCAGUCGUCAGACAGGCGAAGUUCCUAAGUGCAUUUUCUAAUACGGCUUUGGGGUUGGUAAUAUCCAGGAAGUCUGGGCUCUGAGGCUGCAACAGAGGAUUGAGCAUCA
B5: chrX:130830059:130830060:+_ENSMUSG00000033578_ENSMUST00000037687|mus_hu|FALSE|FALSE (ssRNA)
RNA: GGGAGUUCUACAGUCCGACGAUCGGGCCACAAUAGUUACGGUUCUGGGGGAUGCCAUGGGGUCGCCAAGGCAGGUCCCAACUAAUCCUUCUGAUUUGCGCACCCGCUCUGUCCAAGGUGCAGGCAGUUAGCACAGGGAGAGCUCAACAGAGGAUUGAGCAUCA
B6: chrX:102931257:102931258:-_ENSG00000123562_ENST00000441076|hu_hu|FALSE|FALSE (ssRNA)
RNA: GGGAGUUCUACAGUCCGACGAUCUAAUGCAAGGCUUUUCUCAUCAAGGGGCGUAUAGGCCAACAUUGCUCCAAUUCUUACAAAUAAUCUCAGUAGGUGUGGUGCUCCAUAAACCUGGGACAUUGGAGCAUCAGGGUGAGCCAACAACAGAGGAUUGAGCAUCA
B7: chr7:151640622:151640623:-_ENSMUSG00000031078_ENSMUST00000033407|mus_mus|FALSE|FALSE (ssRNA)
RNA: GGGAGUUCUACAGUCCGACGAUCACCUUUGGAGUAAUCUUUCUGAGACUCAUGCUUCUCCGUCUUGCCCUGGUAGUCAAAGCCCACGGCACUCUUGUCUACACGGUCAGCUUGCACACCGUAUUUGCCACCGAAGCCACUAGACAACAGAGGAUUGAGCAUCA
B8: chr11:13408652:13408653:+_ENSG00000133794_ENST00000403290|hu_hu|FALSE|FALSE (ssRNA)
RNA: GGGAGUUCUACAGUCCGACGAUCGACUUCUUUGUAGUGUAAAAACACCAUACAUCUGAAAUGACCAUUUGCAUAUAAAAGCUACCAAUGAUGCUUCUGUGCACAAUGAUUAAAAAAUUCAACACAAACAGAAUCCAAAAUAUACAACAGAGGAUUGAGCAUCA
B9: chr17:35975164:35975165:-_ENSMUSG00000001525_ENSMUST00000001566|mus_mus|FALSE|FALSE (ssRNA)
RNA: GGGAGUUCUACAGUCCGACGAUCGACCGGAGCCCGGGAGGCUGCAGCAGCGAGAUGCAAGCACGACCGCAGGAAGGUUCUAAGAGGCAGAAGAGGCCGGCGAGCGCAGGAGGGAAGGCGCGCAGGGCGGGGCUCGCGUUCGCGCAACAGAGGAUUGAGCAUCA
B10: chr19:16212804:16212805:+_ENSG00000167460_ENST00000300933|hu_mus|hu_hu_hu_mus_False|18_28 (ssRNA)
RNA: GGGAGUUCUACAGUCCGACGAUCAACAAUUCUGGAGUGAAGGAAAGAUGUAACAUGGAACAGCAUUAAAGCUCAGUCAGAAGGCACAUGGGCAACAAUGAUCACCCCCCAAGCAUUCUACGUUGACCUUAAAGACAAUCUGUUCAACAGAGGAUUGAGCAUCA
B11: chr14:78183846:78183847:+_ENSG00000119705_ENST00000557342|hu_hu|hu_hu_hu_mus_False|88_108 (ssRNA)
RNA: GGGAGUUCUACAGUCCGACGAUCUCUGUCUCAAAAAUCUUCAUCAGCAUCAUCAGAUCCGUGCAAAGCCUUUGCUCUUUGAGCUUGAACGUGGAUCUAUGGGAGGGAAAGCACUGUCAGAAAAGGUAAUUUUUUUUUUAAAGACAACAGAGGAUUGAGCAUCA
B12: chr1:63494365:63494366:+_ENSMUSG00000025964_ENSMUST00000114107|mus_mus|FALSE|FALSE (ssRNA)
RNA: GGGAGUUCUACAGUCCGACGAUCAGGCAGUGUGAUUUCUUUUUGCACUGCACUGCUGUAGCUGGUAUUUCUGCUGCUGCUAUUUUGUUGCAAUGUGUUGUCUUCAUCUGCCAGGACUCCCAGGGUUUUUUCUGCAGUUUCAUUCAACAGAGGAUUGAGCAUCA
B13: 111630612_111631619_1632_CDS_ENSG00000108039_ENST00000369680|human|control|control (ssRNA)
RNA: GGGAGUUCUACAGUCCGACGAUCUAGGCCUGAAUCCCAUAAAGCUGAACGGGCAAAGGAGUCAAGAAGGUGACCUUUGGUUCCAGUCGGGAAAACGGCUGCACUCACAGCUAUGUGGCCCUUGAGGACAUAUGUGAAGCAUUCCAACAGAGGAUUGAGCAUCA
B14: 112490949_112493535_1126_CDS_ENSMUSG00000021277_ENSMUST00000021706|mouse|control|control (ssRNA)
RNA: GGGAGUUCUACAGUCCGACGAUCCUCCUUCUGCCUCUCAAUCUCGAUCUCAAAGCUGCAGAUCUGGUUGUGCAGGCUUUGGAUGCUCUUGUUUUUCUCAACACUUUCAUUCUGCAGCAGGGAAACCUUCUUCUCCAGGGAGUUCAACAGAGGAUUGAGCAUCA
B15: chr1:60041781:60041782:+_ENSMUSG00000041040_ENSMUST00000036540|mus_hu|mus_mus_mus_hu_False|1_88 (ssRNA)
RNA: GGGAGUUCUACAGUCCGACGAUCAAGUUUACAAUAGUAAAGUAAAUCAAAUUUAGUCAAAUUUUCUUUUAUUUUCCUUCACAAAAGAAAAUCUUUAUAACCCAGUCCUAGUCUUGGACAUAGUGAAAGCUAUAAAUGCCACUGCAACAGAGGAUUGAGCAUCA
B16: 22939207_22940788_1184_CDS_ENSG00000068793_ENST00000560848|human|control|control (ssRNA)
RNA: GGGAGUUCUACAGUCCGACGAUCCUGGAUCAUCUGCUCGCAGAUGUUGUACUGAGGGCUGCUGCCGGAGGAUGUGCACGUCCAUCGAGAUUUAUUUUCCUCGUAGUGGGCGCUGGUCUUGAUAUAUCUUGCCAGUUCUAUUUGCAACAGAGGAUUGAGCAUCA
B17: chr18:43482012:43482013:-_ENSMUSG00000024501_ENSMUST00000121805|mus_hu|motif|central (ssRNA)
RNA: GGGAGUUCUACAGUCCGACGAUCUCUGAAAGACCCCCACAUCUUUGAAGUGUAAACUAAGAGCUACAUUUUCCCUUUUACGGCAUCUCCCUUAAAAGAAAAGCACUACAAGAGCUUUAAAAUAGCAAGCUUCCCUAUUCUAAGCAACAGAGGAUUGAGCAUCA
B18: chr2:5814250:5814251:-_ENSMUSG00000025816_ENSMUST00000102981|mus_hu|mus_mus_mus_hu_True|18_68 (ssRNA)
RNA: GGGAGUUCUACAGUCCGACGAUCUUCCUUUCCGGUUUCUGAAUUUCUGGUAGAACUGCACAGAAUGGUUUAAUAACUUCUAAAAAUUUGAUGCCCAUGGCUGCUGCUGGGGAGGCCCGGCGGGCACCCGCGGCCUCGGCGCUGCAACAGAGGAUUGAGCAUCA
B19: chr12:3264740:3264741:-_ENSMUSG00000020671_ENSMUST00000021001|mus_hu|motif|central (ssRNA)
RNA: GGGAGUUCUACAGUCCGACGAUCCCAUAUCUGUAGCUUGAUCUUCUUUCCUUGUAAUUCAACUGUUUUGAUCUUGAAGUCGGUUCCGGUGGUGGAAAUAAAGGUAGUAUUGAAGGCAUCAUCCGAAAAACGAAAAAGGACGCACAACAGAGGAUUGAGCAUCA
B20: chr9:82820052:82820053:-_ENSMUSG00000032253_ENSMUST00000034787|mus_hu|FALSE|FALSE (ssRNA)
RNA: GGGAGUUCUACAGUCCGACGAUCGCCAUGUCCUUGGCCUUCAAUCAUAUUGAAAUAAGAUCGUAUUUUGACUCCUCUUGCCAGAUCCCACACUAUCACGUUUCCAUCAUGACCAGCAGAAAAGAGAACUCUAGGAUCGAACGGCAACAGAGGAUUGAGCAUCA
B21: chr14:78183846:78183847:+_ENSG00000119705_ENST00000557342|hu_hu|hu_hu_hu_mus_False|28_48 (ssRNA)
RNA: GGGAGUUCUACAGUCCGACGAUCUCUCAGAAAUCUUUCUUCAUCAGAUGUUUGAGCUCCGUGCAAAGCCUUUGCUCUUUGAGCUUGAACCUGGACCUAUGGGAGGGCUAUAAUAUGCAGAAAAGGUAAUUUUUUUUUUAAAGACAACAGAGGAUUGAGCAUCA
B22: chr15:76911759:76911760:-_ENSMUSG00000033565_ENSMUST00000166610|mus_mus|FALSE|FALSE (ssRNA)
RNA: GGGAGUUCUACAGUCCGACGAUCGAGGAACAUCCAGACAAACAUUUUCACUACAAGUCUCCUUAAAGGAAUCCAGCUUCUAGUAAUAUUCGCAGCAUAGAAAGCCCAGGCCACAGAGGCCUGCAAAACUGCAAACACCCUUCUCAACAGAGGAUUGAGCAUCA

What follows are binders tested against T1, UNK ZnF1-3 (assay: nsRBNS (natural sequence RNA bind-n-seq); RBNS binding buffer (assumed for nsRBNS): 25 mM Tris pH 7.5, 150 mM KCl, 3 mM MgCl2, 0.01% Triton X-100, 500 ug/ml BSA, 20 U/ml SUPERase-In, 4 C; UNK is unkempt and MSI1 is Musashi-1; names of the RNAs are library labels; protein concentration not given here; high values mean tight binding).

| Binder | binding signal |
| --- | --- |
| B1 | 1.21 enrichment R |
| B2 | 0.869 enrichment R |
| B3 | 0.427 enrichment R |
| B4 | 1.03 enrichment R |
| B5 | 0.813 enrichment R |
| B6 | 1.04 enrichment R |
| B7 | 0.783 enrichment R |
| B8 | 0.628 enrichment R |
| B9 | 1.69 enrichment R |
| B10 | 1.3 enrichment R |
| B11 | 1.78 enrichment R |
| B12 | 0.221 enrichment R |
| B13 | 1.33 enrichment R |
| B14 | 0.58 enrichment R |
| B15 | 0.569 enrichment R |
| B16 | 0.693 enrichment R |
| B17 | 1.36 enrichment R |
| B18 | 0.929 enrichment R |
| B19 | 1.71 enrichment R |
| B20 | 0.919 enrichment R |
| B21 | 1.79 enrichment R |
| B22 | 1.1 enrichment R |
